# The RNAGym collection of RNA variant scans (doi:10.1073/pnas.2313332121)
# Variants at the background level are over-represented here.
# B1: TPR 5TU (parent)
# chain: GGAUCUUCUCGAUCUAACAAAAAAGACAAAUCUGCCACAAAGCUUGAGAGCAUCUUCGGAUGCAGAGGCGGCAGCCUUCGGUGGCGCGAUAGCGCCAACGUUCUCAACUAUGACACGCAAAACGCGUGCUCCGUUGAAUGGAGUUUAUCAUG
# Variants of: B1
# Assay: polymerase ribozyme fitness, log enrichment relative to wild type (log ratio); higher = more active; in vitro selection for triplet polymerase activity
# Summary of the method: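 Fitness compares each genotype's enrichment to that of the wild type on a logarithmic scale, averaging replicates with inverse-variance weights. The logarithm is base 2. Enrichment came from Illumina sequencing of input and output libraries after one triplicate round of in vitro selection, which included frozen incubation at −7 °C, of PCR-built, transcribed mutant libraries of each subunit of a heterodimeric triplet polymerase ribozyme. Only genotypes with ≥10 input reads and ≥1 read per output were kept.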
row,Variant,polymerase ribozyme fitness (log ratio)
1,U44A C87A U90C C93G C105G A122G,≤ -4.2
2,U44G C51U U82G C99G A115C G124A G128U G143C,≤ -4.2
3,C43U G62C G67U C103G A122G C131A,≤ -4.2
4,U44G C75G G88C,≤ -4.2
5,U45C U53G G88C A106U C108U,≤ -4.2
6,U44A A52C C85U A106U G126U C131G,≤ -4.2
7,U45A A47C G50C A73U C93G C99U G140A,≤ -4.2
8,U45G A49U A60G U61G A107U U127G,≤ -4.2
9,U44A A66U C76U G88U C96U,≤ -4.2
10,U45C C132G,≤ -4.2
11,U45A C75U,≤ -4.2
12,U44A G67U,≤ -4.2
13,U45A A49G G50C C87A U134G G136U A142G,≤ -4.2
14,U44A U77A C95U,≤ -4.2
15,U45A C114U,-4.01
16,U44A C85G U90C U104G,≤ -4.2
17,U44G C57U C95U C99A G133C U145G,≤ -4.2
18,U45A U148G C149G,≤ -4.2
19,U45A A52C U55A A64C G88U,≤ -4.2
20,U45A G68U G92U C149G,≤ -4.2
21,U45A U77A G92A A110U,≤ -4.2
22,U45A G140U,-4.19
23,U45G C54G C85A C95U,≤ -4.2
24,U44G A89G G92C C96G U145G,≤ -4.2

row,Variant,polymerase ribozyme fitness (log ratio)
1,U44G A52G C85G,≤ -4.2
2,U45A G71A C76A G81U C93U A98U C118A U135A,≤ -4.2
3,U44A A89U G92C C103G,≤ -4.2
4,U44G U56G G70C C85G,≤ -4.2
5,U44C A89U C103A A120U,≤ -4.2
6,U44A C103A,≤ -4.2
7,C43U G58A A60U U82G C93A A115C,≤ -4.2
8,C43U G71A,≤ -4.2
9,U45C C54U A91U C96U G126U C132U,≤ -4.2
10,U44A A47C C76A C93U C125G,≤ -4.2
11,U45A A52U G70A C87A C116A C118U U135G G141A,≤ -4.2
12,U45A G70U C79U G92U A119U U130G,≤ -4.2
13,U44A G92C C132A,≤ -4.2
14,C43U G50A U56A C69A C95U A137C C149G,≤ -4.2
15,U45A A47U G86U C125A,≤ -4.2
16,U44A C85A G92A A107U G128U,≤ -4.2
17,U44A G48C G59A U82C C116G C123U U134C,≤ -4.2
18,U44C C57A U77G A89C A106U G124A G143U G152A,≤ -4.2
19,U45A G86U G88U C99G G117U,≤ -4.2
20,U44G G81C C129A G136A,≤ -4.2
21,U45A G46C A98U,≤ -4.2
22,U44A U61G A66C A91U C132U G141C,≤ -4.2
23,C43U U127G,≤ -4.2
24,U44C G86U C103G G140A U148A,≤ -4.2

row,Variant,polymerase ribozyme fitness (log ratio)
1,U45A G86A A142G,≤ -4.2
2,U44A U55A U77C C87U U148G,≤ -4.2
3,U44A U104A A115G,≤ -4.2
4,U44A A49G C57U C93U C95A G141U,≤ -4.2
5,U45A U77G G86U U104A C123A,≤ -4.2
6,U45A C54U C99A A110U C116G,≤ -4.2
7,C43U U56A C87A G152U,≤ -4.2
8,U45A G67A C79A A91U A121G,≤ -4.2
9,C43U G50A A98G C114U,≤ -4.2
10,U45A C87G,≤ -4.2
11,C43U U55A C87U,≤ -4.2
12,U44A U144A,≤ -4.2
13,U44G G50A C57G C72G C114A G140C,≤ -4.2
14,U45A U56A G80C U102G A119U,≤ -4.2
15,U44A C87U G94U C96U,≤ -4.2
16,U44A G48A G88C U101G,≤ -4.2
17,C43U U61G A64C U77G C85U A110U C116G,-4.02
18,U45C U56C G65A C85A G86U G126A C131U,≤ -4.2
19,U44G U56A C72U C85G G88U A106G,≤ -4.2
20,U44G A49C G50C U82A G94C,≤ -4.2
21,U45C G84C G92A C96G,≤ -4.2
22,U44G U55G C63G G92C G152A,≤ -4.2
23,U44G A47G C85U C108U A121U,≤ -4.2
24,U44G A66G C87G,≤ -4.2

row,Variant,polymerase ribozyme fitness (log ratio)
1,C43U G50U C76A G83A C95U,≤ -4.2
2,U45G C57A,0.374
3,U44A A73U C105G A120G,≤ -4.2
4,U45A A60U C95U C114G,≤ -4.2
5,U45A G71A A115C G133A U144G,≤ -4.2
6,U45A C85U,-3.1
7,U45A C85G,-3.95
8,U44A C54U C75U G92C G94A U148G,≤ -4.2
9,U44G G67U A91U A115U A120C,≤ -4.2
10,U44A G68A C96U A119U C149A,≤ -4.2
11,C43U U56A A66C C75A C85G,≤ -4.2
12,U44A C57A G70U G80A A89U C95G C125G G126A G143U,≤ -4.2
13,C43U G58U U78A U82G C129A U145G,≤ -4.2
14,C43U G59A C95U U135G,≤ -4.2
15,U45A C76U C125G,-3.81
16,U45A A60U C76A C87G,≤ -4.2
17,U44G G48A G84A,≤ -4.2
18,U44G U45G G86C C114A C125U,≤ -4.2
19,U44A C57U,≤ -4.2
20,U44A A49G C54A U82C G124U G140A,≤ -4.2
21,U45A C76U A98U G100C U101G A106U,-4
22,U44A G68U G92U A98G C99G,≤ -4.2
23,U45A C99A,≤ -4.2
24,C43U U44A U77C C87A G140A,≤ -4.2

row,Variant,polymerase ribozyme fitness (log ratio)
1,U44A G50C G81A U135A,≤ -4.2
2,U44A U55A G81U C95G G141C,≤ -4.2
3,U45A G58A G65C C95U C105U,≤ -4.2
4,C43U G50C U55G A89U C95A A98U G124A C131G,≤ -4.2
5,U44A C79G C85A U111G G133C,≤ -4.2
6,U45A C85U C87U C96G,≤ -4.2
7,U45A G50A U135G,≤ -4.2
8,U44G G50A G58A C93A G133U,≤ -4.2
9,U44A G94C A107G G140U G143C U145G,≤ -4.2
10,U45A G48A G50C G59C C79G,≤ -4.2
11,U44C A47G G83A A97G A107G A110C C114G,≤ -4.2
12,U45A G50A C87U A98G A115C U127A A147U,≤ -4.2
13,U44C G94A,≤ -4.2
14,U44A A91U C132G U146A,≤ -4.2
15,U44G G58C A97U A113C,≤ -4.2
16,U45C A66C G67C C93U A113U,≤ -4.2
17,C43U G67C A73U C95U,≤ -4.2
18,U45A A91C,≤ -4.2
19,U44A C76A A91G,≤ -4.2
20,U45A A73C C96A A113U A115U U145C,≤ -4.2
21,U44A C51U C76U A106U A110G,≤ -4.2
22,U44G A73G A91G A107C,≤ -4.2
23,U44A C131G,≤ -4.2
24,U44C G86U A142U,≤ -4.2

row,Variant,polymerase ribozyme fitness (log ratio)
1,U44A G59C C96U C108G U135G,≤ -4.2
2,U45A A49U C75A G83C C87G,≤ -4.2
3,U44A G46C G48U U55A C87G A119C A137C G140U,≤ -4.2
4,U44G A52C G92U G141A,≤ -4.2
5,U45A U109C,-3.44
6,U45A G65A U82A A106U,-0.414
7,U44A G74A,≤ -4.2
8,U45A A73U,≤ -4.2
9,U45G A52G A66G C79G A110U U144A,≤ -4.2
10,U45A A66G U77G U109G A120C C132U A142C U146G,≤ -4.2
11,C43U U55A U146G,≤ -4.2
12,C43U G84A C103A U104C G141C,≤ -4.2
13,U44A A91C,≤ -4.2
14,C43U C99G U151C,≤ -4.2
15,U44A U82C A113G,≤ -4.2
16,U45G A89G C93A U135A,≤ -4.2
17,C43U U56G A110C C116G,≤ -4.2
18,U45A A49C G71C G83C C87U C96U A115U G126A G140C,≤ -4.2
19,U44G G143C,≤ -4.2
20,U44G A91C G143U,≤ -4.2
21,U45A G84C C95A G143A,≤ -4.2
22,C43U U61A C96A,≤ -4.2
23,U44A C54U C57G C72G G84C C95G C96U,≤ -4.2
24,U44G U55G U78C C85U U101G,≤ -4.2

row,Variant,polymerase ribozyme fitness (log ratio)
1,U44A G67A C87A G143A,≤ -4.2
2,U44A A91G U135C U144C,≤ -4.2
3,C43U G74A C85G U139A A142G,≤ -4.2
4,U44G A97U A121U G143A,≤ -4.2
5,U44A A52C G83C C95U U135G U148A,≤ -4.2
6,U45A U56A U104C C116U,≤ -4.2
7,U44G C54A G86U A106G,≤ -4.2
8,C43U G80A G94A A115G,≤ -4.2
9,U44A C96U,≤ -4.2
10,U44A U61G A66U C87G U90A C95U,≤ -4.2
11,C43U G83A,≤ -4.2
12,U44A G92U C96U C105A G126C,≤ -4.2
13,U44A G92A C93A G141C,≤ -4.2
14,U44G A52C C96U U127C,≤ -4.2
15,C43U C105A A113U C132U,≤ -4.2
16,U45A G46C U56A G84U G88U U90G C99A,≤ -4.2
17,C43U U56G,≤ -4.2
18,U44C G46U C93U G140A U148G,≤ -4.2
19,U45A A52G G80A G81C A113C C131G,≤ -4.2
20,U45A U56G A73G C96G C99G A107U G140A,≤ -4.2
21,U44C G86C,≤ -4.2
22,U45C C79U C87U A110U A113U A120U A142U,≤ -4.2
23,U44A U53C G86A A147C,≤ -4.2
